Consider four molecules from article PMC4980431, “Ctf4 Is a Hub in the Eukaryotic Replisome that Links Multiple CIP-Box Proteins to the CMG Helicase” (Molecular Cell, 2016).

Results are given in words; binding and its absence hold for the method and conditions named. Some results given as binding are weak or reduced against the parent protein; the word gives no strength.

Assay [1] deals with T1, Ctf4 461–927 (budding yeast) (UniProt Q01454).
T1 sequence: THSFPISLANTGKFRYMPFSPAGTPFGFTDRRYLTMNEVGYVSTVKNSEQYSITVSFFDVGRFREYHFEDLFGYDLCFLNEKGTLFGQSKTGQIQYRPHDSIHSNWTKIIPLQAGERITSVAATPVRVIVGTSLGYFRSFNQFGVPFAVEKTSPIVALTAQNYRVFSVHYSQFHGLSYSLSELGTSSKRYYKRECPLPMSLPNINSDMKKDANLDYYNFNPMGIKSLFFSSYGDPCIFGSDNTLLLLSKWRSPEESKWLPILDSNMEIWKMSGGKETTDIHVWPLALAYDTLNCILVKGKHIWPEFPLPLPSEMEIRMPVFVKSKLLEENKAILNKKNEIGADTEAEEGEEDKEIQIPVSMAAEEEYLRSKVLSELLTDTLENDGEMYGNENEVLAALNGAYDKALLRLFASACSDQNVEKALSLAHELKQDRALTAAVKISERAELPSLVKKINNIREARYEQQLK
As to the kind of experiment: two-hybrid; directed yeast two-hybrid assay, fusions to the activation and DNA-binding domains of Gal4.

In assay [2] the target is T1, Ctf4 461–927 (budding yeast). The assay is described as above. This is another data set of the same source.
Assay [3] has as its target T2, Ctf4-3E (two-hybrid) (budding yeast) (UniProt Q01454).
T2 sequence: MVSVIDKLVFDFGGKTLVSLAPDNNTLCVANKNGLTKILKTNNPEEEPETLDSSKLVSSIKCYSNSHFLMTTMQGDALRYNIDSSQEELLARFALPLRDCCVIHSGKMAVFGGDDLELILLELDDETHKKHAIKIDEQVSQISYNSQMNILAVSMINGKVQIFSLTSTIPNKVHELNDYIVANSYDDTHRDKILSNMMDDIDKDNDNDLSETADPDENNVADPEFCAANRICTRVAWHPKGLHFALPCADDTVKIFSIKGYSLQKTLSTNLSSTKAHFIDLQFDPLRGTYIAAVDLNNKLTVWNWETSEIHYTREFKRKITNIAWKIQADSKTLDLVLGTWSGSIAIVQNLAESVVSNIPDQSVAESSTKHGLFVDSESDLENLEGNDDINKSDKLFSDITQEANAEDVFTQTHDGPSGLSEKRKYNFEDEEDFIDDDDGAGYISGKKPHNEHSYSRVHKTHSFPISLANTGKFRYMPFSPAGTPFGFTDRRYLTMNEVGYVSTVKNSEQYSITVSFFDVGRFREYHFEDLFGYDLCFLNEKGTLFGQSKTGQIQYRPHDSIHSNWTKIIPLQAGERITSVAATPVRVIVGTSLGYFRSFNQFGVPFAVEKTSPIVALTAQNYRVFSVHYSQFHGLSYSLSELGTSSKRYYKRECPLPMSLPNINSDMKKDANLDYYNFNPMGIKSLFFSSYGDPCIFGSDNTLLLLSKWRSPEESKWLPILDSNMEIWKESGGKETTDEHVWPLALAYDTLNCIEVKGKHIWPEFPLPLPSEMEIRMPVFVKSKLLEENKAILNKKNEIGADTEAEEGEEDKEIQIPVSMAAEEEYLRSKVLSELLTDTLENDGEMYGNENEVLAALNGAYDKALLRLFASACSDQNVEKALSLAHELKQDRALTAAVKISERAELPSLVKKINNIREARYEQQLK
The description is as above.

For assay [4], the target named is T3, Ctf4-4E (two-hybrid) (budding yeast) (UniProt Q01454).
T3 sequence: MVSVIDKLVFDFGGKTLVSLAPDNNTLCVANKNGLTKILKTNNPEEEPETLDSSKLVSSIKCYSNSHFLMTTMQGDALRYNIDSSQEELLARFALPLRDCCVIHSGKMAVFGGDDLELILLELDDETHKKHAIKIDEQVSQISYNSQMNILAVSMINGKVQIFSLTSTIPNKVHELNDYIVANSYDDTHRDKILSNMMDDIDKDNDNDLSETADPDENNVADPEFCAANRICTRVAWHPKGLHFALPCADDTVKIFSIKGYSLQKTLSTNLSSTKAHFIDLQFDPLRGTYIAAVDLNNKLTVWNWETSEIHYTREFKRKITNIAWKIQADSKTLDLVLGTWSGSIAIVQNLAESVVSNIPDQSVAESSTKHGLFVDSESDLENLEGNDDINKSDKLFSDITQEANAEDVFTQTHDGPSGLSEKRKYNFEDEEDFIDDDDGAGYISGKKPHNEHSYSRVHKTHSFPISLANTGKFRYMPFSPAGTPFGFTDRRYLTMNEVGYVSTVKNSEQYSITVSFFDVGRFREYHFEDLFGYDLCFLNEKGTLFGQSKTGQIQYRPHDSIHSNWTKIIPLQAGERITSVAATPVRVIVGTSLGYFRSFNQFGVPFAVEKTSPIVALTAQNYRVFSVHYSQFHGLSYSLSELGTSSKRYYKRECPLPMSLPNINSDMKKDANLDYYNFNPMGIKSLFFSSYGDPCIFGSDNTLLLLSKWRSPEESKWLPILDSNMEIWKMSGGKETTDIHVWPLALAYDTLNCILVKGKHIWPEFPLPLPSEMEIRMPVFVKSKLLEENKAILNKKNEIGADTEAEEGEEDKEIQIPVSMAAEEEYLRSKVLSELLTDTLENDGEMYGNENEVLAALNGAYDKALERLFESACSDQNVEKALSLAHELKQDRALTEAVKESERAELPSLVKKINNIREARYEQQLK
The assay is described as above.

The target in assay [5] is T4, wild-type Ctf4 (two-hybrid, limits not stated) (budding yeast) (UniProt Q01454).
T4 sequence: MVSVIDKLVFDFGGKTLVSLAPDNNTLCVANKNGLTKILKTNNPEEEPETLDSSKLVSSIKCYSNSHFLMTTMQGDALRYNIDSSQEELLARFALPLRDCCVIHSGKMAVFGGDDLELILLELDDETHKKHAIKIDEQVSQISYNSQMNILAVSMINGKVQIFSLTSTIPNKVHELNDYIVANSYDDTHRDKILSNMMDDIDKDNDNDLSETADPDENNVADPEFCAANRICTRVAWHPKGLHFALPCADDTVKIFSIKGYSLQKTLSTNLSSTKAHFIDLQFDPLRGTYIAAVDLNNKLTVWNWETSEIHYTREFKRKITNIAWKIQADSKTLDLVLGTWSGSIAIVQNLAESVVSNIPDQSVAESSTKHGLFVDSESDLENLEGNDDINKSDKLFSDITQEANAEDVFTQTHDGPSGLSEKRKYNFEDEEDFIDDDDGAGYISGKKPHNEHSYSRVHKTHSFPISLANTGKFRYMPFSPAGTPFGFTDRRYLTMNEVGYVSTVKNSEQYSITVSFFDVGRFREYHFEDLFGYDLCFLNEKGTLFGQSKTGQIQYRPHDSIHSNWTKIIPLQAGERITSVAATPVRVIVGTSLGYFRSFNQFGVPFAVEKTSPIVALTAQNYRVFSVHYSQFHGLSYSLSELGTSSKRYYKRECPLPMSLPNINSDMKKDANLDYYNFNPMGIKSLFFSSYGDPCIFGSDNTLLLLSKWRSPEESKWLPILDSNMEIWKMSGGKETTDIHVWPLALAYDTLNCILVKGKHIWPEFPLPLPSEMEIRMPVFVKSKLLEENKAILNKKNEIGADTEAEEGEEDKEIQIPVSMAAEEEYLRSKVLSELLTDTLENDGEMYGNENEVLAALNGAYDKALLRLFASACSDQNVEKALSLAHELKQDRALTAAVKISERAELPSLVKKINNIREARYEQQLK
The description is as above.

Assay [6] deals with T1, Ctf4 461–927 (budding yeast). As to the kind of experiment: two-hybrid; yeast two-hybrid screen against amino acids 461–927 of Ctf4, performed by Hybrigenics.

On to “full-length Dna2 (1–1,522) (two-hybrid) (from UniProt P38859 1-1522)”, for which the binding result in assay [1] is “binds”.

B1: full-length Tof2 (two-hybrid) (protein, UniProt Q02208 1-771)
chain: MIKMWRLQIVLVPPSAQDIITFLEARLNTPQSVSPMVQYNEDIITHNNSINNCSDPSPTSPSSQNSIQSNRSSDFINYLPNCKKFLHFTDGDNTLLQLSNEILTKFDRLYPNFKESIEIVSLQDRHGCDLDSEFIIKDVFENDGVVLVILKDELDWSRNQHISLLQLARQRRRQDNKPSTKSIVTEKRKKISKEDLSSISNKDTMHLIAKSSLKNNFINKSRVSTPLMNEILPLASKYDALNKEKCPMPLTSTVVASNVHKDVKDHARAKEGVVTQGSDNNKENIPSSTQQQKNDGAKRAESKDLDLLRNSSEDADYEPADENSPQISFDSIDTDFQLSTTSHTNSDMHIQYSNPSSGAHSPRKSSLEIKVQNKKGDDLPLNDKDIGENCRRIEAFSDEEDFNETDNDRADSFINNSKKASMGFRDINSDLDSVSFNSDIENAVQSTQSTKNVVSPPFFPEKELNNRLHQSQGKEALFRLVEKEFPDKSLGAASSTSHAKDVKIQETIRKLNRFKPTGETKVQKRNSITEPYYGKFGIMKKDKPKSITSKGVSLETKHFDDPNTIISGEKFAKFGKIKVKRKTDDVGSKVIEFKRKRNMGNRSLKDIFANAGKPPNAASTIKVVKLMRDPVDNSKDKVEATSNSTAQEQEQVSPKLPVMNSTPGKRKNGQAIPSSLERTPQLKKVKVTRSHSSPSSSSSMSLESSLDSSSSDDSDDDSDSRNVQVKKINFKTSHGPAGNSNGKPMLDVDDNEINTKKYQTPKYVESDEDDQ
Take B1: the binding entry in assay [2] is listed as “binds”; in assay [3] it was “no binding”; in assay [4], “binds”; in assay [5] it was “binds”.

B2: Ctf4-4E (two-hybrid) (protein, UniProt Q01454 1-927)
chain: MVSVIDKLVFDFGGKTLVSLAPDNNTLCVANKNGLTKILKTNNPEEEPETLDSSKLVSSIKCYSNSHFLMTTMQGDALRYNIDSSQEELLARFALPLRDCCVIHSGKMAVFGGDDLELILLELDDETHKKHAIKIDEQVSQISYNSQMNILAVSMINGKVQIFSLTSTIPNKVHELNDYIVANSYDDTHRDKILSNMMDDIDKDNDNDLSETADPDENNVADPEFCAANRICTRVAWHPKGLHFALPCADDTVKIFSIKGYSLQKTLSTNLSSTKAHFIDLQFDPLRGTYIAAVDLNNKLTVWNWETSEIHYTREFKRKITNIAWKIQADSKTLDLVLGTWSGSIAIVQNLAESVVSNIPDQSVAESSTKHGLFVDSESDLENLEGNDDINKSDKLFSDITQEANAEDVFTQTHDGPSGLSEKRKYNFEDEEDFIDDDDGAGYISGKKPHNEHSYSRVHKTHSFPISLANTGKFRYMPFSPAGTPFGFTDRRYLTMNEVGYVSTVKNSEQYSITVSFFDVGRFREYHFEDLFGYDLCFLNEKGTLFGQSKTGQIQYRPHDSIHSNWTKIIPLQAGERITSVAATPVRVIVGTSLGYFRSFNQFGVPFAVEKTSPIVALTAQNYRVFSVHYSQFHGLSYSLSELGTSSKRYYKRECPLPMSLPNINSDMKKDANLDYYNFNPMGIKSLFFSSYGDPCIFGSDNTLLLLSKWRSPEESKWLPILDSNMEIWKMSGGKETTDIHVWPLALAYDTLNCILVKGKHIWPEFPLPLPSEMEIRMPVFVKSKLLEENKAILNKKNEIGADTEAEEGEEDKEIQIPVSMAAEEEYLRSKVLSELLTDTLENDGEMYGNENEVLAALNGAYDKALERLFESACSDQNVEKALSLAHELKQDRALTEAVKESERAELPSLVKKINNIREARYEQQLK
As for B2, the binding result in assay [5] was “binds”.

B3: Dna2 120–456 (two-hybrid) (domain or fragment, UniProt P38859 120-456)
chain: DGPMEEVIWKYSPLQRDMSDKTTSAAEYSDDYEDVQNPSSTPIVPNRLKTVLSFTNIQVPNADVNQLIQENGNEQVRPKPAEISTRESLRNIDDILDDIEGDLTIKPTITKFSDLPSSPIKAPNVEKKAEVNAEEVDKMDSTGDSNDGDDSLIDILTQKYVEKRKSESQITIQGNTNQKSGAQESCGKNDNTKSRGEIEDHENVDNQAKTGNAFYENEEDSNCQRIKKNEKIEYNSSDEFSDDSLIELLNETQTQVEPNTIEQDLDKVEKMVSDDLRIATDSTLSAYALRAKSGAPRDGVVRLVIVSLRSVELPKIGTQKILECIDGKGEQSSVVVR
For the molecule B3, the binding entry in assay [6] and in assay [2] was “binds” each time.
